Data from the supplement of paper PMC3724861.
Some of the results follow.

system: T1, Caupolican (Caup) homeodomain DNA-binding domain; test: PBM E-score (8-mer, recovered from the published 9-mer minima) (E-score (dimensionless, -0.5 to 0.5)); Drosophila protein; higher = stronger relative binding preference, active = 0.31 or more
T1 sequence: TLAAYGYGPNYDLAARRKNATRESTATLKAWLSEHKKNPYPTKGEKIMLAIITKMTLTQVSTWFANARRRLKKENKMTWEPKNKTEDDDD
Procedure, shortened: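 Caup's homeodomain DNA-binding domain (residues 214-303) was produced by in vitro transcription and translation and applied at 100 nM to custom-designed protein binding microarrays. Each value is an enrichment score giving relative binding preference for a short DNA word; higher means stronger. Published 9-mer scores were the minimum of their two constituent 8-mer scores, and the 8-mer values were recovered from those minima. A cutoff of 0.31 marks candidate binding sequences.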

| Sequence | PBM E-score |
| --- | --- |
| CTCCGCGC | inactive: -0.243 |
| GTTGCAAA | inactive: 0.0186 |
| AATTAATC | inactive: 0.117 |
| AATAGCCA | inactive: 0.0293 |
| GACACTAA | inactive: 0.0423 |
| AAGATCAA | inactive: 0.0657 |
| GATCTCAC | inactive: -0.0625 |
| ATCTATGC | inactive: 0.119 |
| TCTCGTCA | ≥ 0.0608 |
| CCGACTAA | inactive: 0.0369 |
| AACAACAA | active: 0.394 |
| ACTCACTG | inactive: 0.0269 |
| AAGTGTAA | inactive: 0.14 |
| CAACGGCC | inactive: -0.118 |
| CACCCGTC | inactive: -0.101 |
| CAAGTGGG | inactive: -0.0243 |
| CGTGTGCA | inactive: 0.123 |
| AAACGCGC | inactive: -0.15 |
| AGCAAGGA | inactive: 0.00873 |
| ACAGGTAG | inactive: 0.125 |
| CACGAGGG | inactive: -0.195 |
| AGGACTAA | inactive: -0.0117 |
| AGATCCAC | inactive: -0.0282 |
| GAGCGGAA | ≥ -0.0166 |
| AATGTGAC | inactive: 0.0614 |

| Sequence | PBM E-score |
| --- | --- |
| AAAGTCAT | inactive: 0.0654 |
| AGCCATTG | inactive: -0.00821 |
| GCGTTGAC | inactive: -0.0164 |
| ACGAGGGG | inactive: -0.162 |
| CCCAATAA | inactive: -0.0565 |
| AGTCGTAC | inactive: 0.108 |
| ATCCTCGG | inactive: -0.00578 |
| TGGAGCAA | inactive: -0.00986 |
| AGAATAGC | inactive: 0.00374 |
| ACTGCGGG | inactive: -0.154 |
| ATCAGACG | inactive: 0.0106 |
| GCAGGTTA | inactive: -0.0457 |
| AAATGACT | inactive: 0.0814 |
| AGGGCCCT | inactive: -0.205 |
| ATCTGCTC | inactive: 0.00661 |
| AAACACAT | inactive: 0.229 |
| TACTGCTA | inactive: 0.00036 |
| AAGATGCA | ≥ 0.0765 |
| CCGAGTCC | inactive: -0.166 |
| AATCCCAT | inactive: 0.0876 |
| CGAGATCG | inactive: -0.129 |
| GATCCCGC | inactive: -0.0627 |
| CCAGCGCC | inactive: -0.35 |
| AGACGAAA | inactive: -0.0392 |
| TAATTGAA | inactive: 0.0636 |

| Sequence | PBM E-score |
| --- | --- |
| ATAAATGA | inactive: 0.157 |
| CGCCTTTC | inactive: -0.134 |
| GGATACCC | inactive: -0.15 |
| CGCGTCCA | inactive: -0.199 |
| AAGCGAAT | ≥ 0.0855 |
| AACTTTAC | inactive: 0.112 |
| ATGCACCA | inactive: 0.0861 |
| AGTCTTTC | inactive: -0.076 |
| AACTACTC | inactive: 0.0777 |
| CCTCGGGA | inactive: -0.15 |
| CACTCGGC | inactive: -0.125 |
| GCTTCTCA | inactive: -0.139 |
| CCGGTAGG | inactive: -0.158 |
| ACGCCTGG | inactive: -0.081 |
| GTTTTTTA | inactive: 0.104 |
| CGACCCGC | inactive: -0.237 |
| CCATATCA | inactive: 0.0253 |
| AGCTTCAT | inactive: -0.0395 |
| GTACCACA | inactive: 0.177 |
| CGGGCAAC | inactive: -0.149 |
| CATAATAG | inactive: 0.129 |
| ACGACCGC | inactive: -0.154 |
| CCCCTTGC | inactive: -0.183 |
| CAGTGGCC | inactive: -0.219 |
| CTCCTGTA | inactive: 0.0941 |

| Sequence | PBM E-score |
| --- | --- |
| CAAATAGC | inactive: 0.0222 |
| CGCAAACA | ≥ 0.224 |
| CTTATAAA | inactive: 0.0297 |
| TCAGAAGA | inactive: -0.0667 |
| ATGGCTGC | inactive: -0.044 |
| GTCTAGTA | inactive: 0.169 |
| CCTAATAC | inactive: 0.0815 |
| ACGGAACG | inactive: 0.00712 |
| ACTAGTTA | inactive: 0.118 |
| CATCCACG | inactive: 0.0304 |
| CAATCGTG | inactive: 0.0797 |
| CCGGGGCG | inactive: -0.349 |
| ATTCTTTA | inactive: 0.113 |
| GCCATGCA | inactive: -0.0297 |
| GCCGTAAA | inactive: -0.0841 |
| TATCCGGA | inactive: -0.0225 |
| CCACAACG | inactive: -0.15 |
| AGATGACA | inactive: 0.227 |
| TCATCTAA | inactive: -0.0247 |
| GGAGAAAA | inactive: -0.0683 |
| AGTCATAA | inactive: 0.146 |
| CTGGGAAA | inactive: -0.0784 |
| CAGAGCTG | inactive: -0.0267 |
| AATCAGAC | inactive: 0.112 |
| CACCGTCA | inactive: -0.136 |

| Sequence | PBM E-score |
| --- | --- |
| GTATCTCA | inactive: 0.125 |
| GCGCGCTA | ≥ -0.0022 |
| AGATTGCG | inactive: -0.0689 |
| AAGGTCGA | inactive: 0.012 |
| GGTAGTAA | inactive: 0.115 |
| GGTCGAAC | inactive: 0.0473 |
| GGATCAGA | inactive: -0.024 |
| AATACCAA | inactive: 0.118 |
| GATTAAGA | inactive: 0.0784 |
| AACTAATC | inactive: 0.116 |
| CGGCACCA | inactive: -0.123 |
| GAGACGGC | inactive: -0.143 |
| CTATGTAC | active: 0.381 |
| AACTGACA | inactive: 0.229 |
| GAAGCTTA | inactive: -0.0166 |
| AATATATC | inactive: 0.172 |
| ATTACCAC | inactive: 0.144 |
| AGGAAAAT | inactive: 0.00243 |
| TCTTTTCA | inactive: -0.0323 |
| GAACGGTC | inactive: -0.153 |
| ACGCTCCC | inactive: -0.0801 |
| AAGCCATA | inactive: 0.0203 |
| GGCTTTAC | inactive: -0.00926 |
| ACCGGAGT | inactive: -0.106 |
| GTGTACAA | active: 0.396 |

| Sequence | PBM E-score |
| --- | --- |
| GACCACTA | inactive: 0.0147 |
| CTCTATGA | inactive: -0.0639 |
| AGGAGAAA | inactive: 0.0158 |
| AATAGACA | inactive: 0.296 |
| AAATTGCG | inactive: 0.00698 |
| GAATAACA | inactive: 0.301 |
| CTCTTAGC | inactive: -0.113 |
| ATGAACTC | inactive: -0.0241 |
| ATCAGTCA | ≥ 0.114 |
| CAGTGCCA | inactive: -0.127 |
| ATCTAGAT | inactive: 0.0185 |
| ACAAGTCC | inactive: 0.229 |
| AGGTTTGG | inactive: -0.107 |
| GAAGGGTC | inactive: -0.17 |
| GCCCTTAA | inactive: -0.119 |
| AGATAGTA | inactive: 0.155 |
| GGGAGCCA | inactive: -0.294 |
| CGACATCA | inactive: 0.284 |
| AGCGGCGC | inactive: -0.208 |
| AAAGCCGG | inactive: -0.127 |
| CACTCGTC | inactive: -0.0183 |
| AGACATAT | inactive: 0.264 |
| GTGATCCA | inactive: -0.0252 |
| GAACTACA | active: 0.314 |
| ACAAGTCT | inactive: 0.296 |

| Sequence | PBM E-score |
| --- | --- |
| TATCGACA | inactive: 0.142 |
| ATAAGTTC | inactive: 0.107 |
| CCCGACGG | inactive: -0.206 |
| CATCACAA | inactive: 0.178 |
| TATCGCCA | inactive: -0.0216 |
| AGCGGTCC | inactive: -0.13 |
| AATGCCTG | inactive: -0.0623 |
| TACGTGAA | inactive: 0.0545 |
| CTAAGGGA | inactive: -0.0661 |
| CTACTCAG | inactive: -0.0389 |
| GCGGCCTA | inactive: -0.275 |
| AAAATTAA | inactive: 0.0601 |
| CTTTCACA | inactive: 0.0496 |
| AACAAGAG | inactive: 0.243 |
| CATGCCAC | inactive: 0.0331 |
| CACGTAAC | inactive: 0.057 |
| AGTATGTG | inactive: 0.159 |
| GCCGCTAC | inactive: -0.24 |
| GAACGGCA | inactive: -0.0341 |
| CAGCACGA | inactive: 0.0476 |
| GTTAAATA | inactive: 0.232 |
| ACCATCAT | inactive: 0.0686 |
| AAGCTGTG | inactive: 0.00524 |
| ATGAGCTA | inactive: 0.00817 |
| GGGATTTA | inactive: -0.0562 |

| Sequence | PBM E-score |
| --- | --- |
| CTAACCCA | inactive: -0.0966 |
| TGTTGAAA | inactive: 0.189 |
| CTTTAGGA | inactive: -0.0248 |
| CGGCCCCC | inactive: -0.29 |
| ATGTAGTA | active: 0.372 |
| ATCAGCTC | inactive: 0.00528 |
| GCACTGAA | inactive: 0.021 |
| TAAGTCTA | inactive: 0.0325 |
| ACGGGATC | inactive: -0.00327 |
| TCCACCCA | inactive: -0.071 |
| GAGAGTCA | inactive: -0.0427 |
| TGTGAGAA | inactive: 0.0904 |
| AGTCCCAA | inactive: -0.095 |
| CGGAGTTC | inactive: -0.0275 |
| AATTGTGA | inactive: 0.148 |
| CGAGGTTC | inactive: -0.0575 |
| AGGTTACC | inactive: -0.0352 |
| ATGAAACC | inactive: 0.108 |
| AACCTTTG | inactive: 0.0184 |
| AAGCGTCA | ≥ 0.00475 |
| GGTTAACC | inactive: -0.115 |
| GGCCGCCC | inactive: -0.285 |
| CGATTCCA | inactive: -0.0588 |
| AACATTCC | inactive: 0.148 |
| ATTCGGCA | inactive: 0.0146 |

| Sequence | PBM E-score |
| --- | --- |
| CATCAAGC | inactive: -0.0243 |
| AGTCCAGC | inactive: -0.162 |
| AATCCTAC | inactive: 0.035 |
| ATTGGGTC | inactive: -0.117 |
| GTTGAGTA | inactive: 0.128 |
| ACCGCTCG | inactive: -0.0508 |
| CTAGCTAA | inactive: -0.0321 |
| AGCGCGAC | inactive: -0.0305 |
| CCCAGAAC | inactive: -0.0251 |
| ATTTCTAA | inactive: -0.0178 |
| AGTCTTAA | inactive: 0.0528 |
| CCATAACA | inactive: 0.16 |
| CCGCGAGA | inactive: -0.141 |
| CGAGTCAC | inactive: -0.0968 |
| GCGGGTTA | inactive: -0.0797 |
| TCGTATCA | inactive: 0.142 |
| GAGCGCAA | inactive: -0.179 |
| GAAGGATA | inactive: 0.0415 |
| AGCAGAAG | inactive: -0.0802 |
| ACAGGCGC | inactive: -0.0681 |
| GACGTAAC | inactive: 0.1 |
| AGATTGAC | inactive: 0.0835 |
| GTGTAGGA | ≥ 0.18 |
| CGTTTGAC | inactive: -0.0145 |
